Test results from PubChem BioAssay AID485344 (National Center for Advancing Translational Sciences (NCATS), 2010).
In all, about 340,000 compounds went through this assay and about 6,900 (2%) were called active. No stated cut-off is given here; in the data, active means inhibition above about 30%; inactive means below that, where a call was filed. This is a selection; strong and weak results do not stand in their true shares. Entries without a call were filed so in the source.

biological target: D(2) dopamine receptor (Homo sapiens) (UniProt P14416); experiment: HTS Assay for Allosteric Antagonists of the Human D2 Dopamine Receptor: Primary Screen for Antagonists; settings: HEK293 TREx D2 cells, calcium flux, dopamine EC80; at 10 µM; stronger effect = higher value; further: 0% is about no effect
Summary of the method: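 Dopamine at EC80 is the agonist stimulus; test compounds precede it by 180 s. Calcium flux read kinetically in a force-coupled, inducible HEK293 T-REx D2 cell line.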

UniProt P14416, sequence (P14416 whole entry, looked up): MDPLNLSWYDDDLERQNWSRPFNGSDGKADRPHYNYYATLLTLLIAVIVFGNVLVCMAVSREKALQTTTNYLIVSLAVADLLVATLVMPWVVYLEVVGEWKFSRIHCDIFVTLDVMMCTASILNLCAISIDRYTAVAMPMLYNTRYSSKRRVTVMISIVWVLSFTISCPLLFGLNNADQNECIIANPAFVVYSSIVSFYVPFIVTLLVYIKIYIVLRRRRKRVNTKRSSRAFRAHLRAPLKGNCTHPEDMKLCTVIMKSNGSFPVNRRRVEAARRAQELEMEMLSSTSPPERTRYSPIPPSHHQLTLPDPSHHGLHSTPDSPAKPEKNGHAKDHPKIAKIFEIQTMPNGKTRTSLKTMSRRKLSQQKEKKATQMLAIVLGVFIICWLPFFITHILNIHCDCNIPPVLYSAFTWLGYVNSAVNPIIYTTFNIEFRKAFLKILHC

SMILES	inhibition
CCn1c(Cc2ccccc2)nnc1SCC(=O)Nc1ccccc1O	active: 40%
COc1ccc2c(c1)c1c(c(=O)n(-c3ccc(F)c(Cl)c3)c(=O)n1Cc1cccc(C)c1)n2C	-1.95%
Cc1c(CCC(=O)NCCc2ccccc2)c(=O)oc2cc(O)ccc12	-7.15%
Cc1ccc(C(=O)Nc2c(C(=O)NC(C)(C)C)oc3ccccc23)cc1	9.43%
C=CCNC(=O)Nc1cc(Cl)ccc1OC	active: 38.4%
Cc1cccc(C(=O)Nc2ccc3oc(-c4cccc5c(Br)cccc45)nc3c2)c1	-1.34%
CCc1ccc(NC(=O)C2CCN(c3nc(-c4ccc(OC)cc4)no3)CC2)cc1	-0.272%
Cc1cc(OCC(=O)Nc2ccc(C(=O)OC3CCCCC3)cc2)cc(C)c1Cl	-6.08%
COc1ccc(CCNCc2c(C(=O)O)c(C)n(Cc3c(F)cccc3Cl)c2C)cc1OC	20.9%
COc1ccc2c(c1)CC(C(=O)NCc1ccc(F)cc1)CO2 (configuration not stated)	-0.75%
CCCOC(=O)Nc1cccc(C(C)=O)c1	active: 35.2%
Cc1nnc(NC(=O)CSc2nc3c([nH]c4ccccc43)c(=O)n2-c2ccc(Cl)cc2)s1	-3.94%
Cc1ccc2[nH]c(=O)c3cc(C(=O)N(C)c4ccc(Br)cc4)sc3c2c1	-4.21%
CC(=O)Nc1cc(C(=O)NCc2ccccc2Cl)ccc1Sc1ccc(F)cc1	6.8%
Cc1ccc(NC(=O)c2cc(S(=O)(=O)N3CCCCC3)c[nH]2)cc1N(C)C	2.07%
Cc1cc(C)cc(NC(=O)c2cc(S(=O)(=O)NCCC3=CCCCC3)ccc2F)c1	-2.38%
COc1ccc(NC(=O)Cn2c3ncccc3c(=O)n2-c2ccc(C)c(C)c2)c(OC)c1	3.68%
CCOCCCNC(=O)C(c1ccc(OC)cc1)N(Cc1ccc2c(c1)OCO2)C(=O)c1ccc(NC(C)=O)cc1 (configuration not stated)	-1.9%
O=S(=O)(Nc1ccc2nc(-c3ccc(F)cc3)oc2c1)c1ccccc1	5.1%
CCCCc1nn2c(=O)cc(COC(=O)c3ccc(NC(=O)c4ccccc4Cl)cc3)nc2s1	-3.07%
COc1cccc(CNC(=O)c2ccc3nc(N4CCCCC4)sc3c2)c1OC	1.91%
COc1cccc(CNC(=O)C(NS(=O)(=O)c2cccs2)C(C)C)c1 (configuration not stated)	-9.49%
Cc1ccc(CN2CCSc3ccc(C(=O)N4CCN(c5ccc(Cl)cc5)CC4)cc32)cc1	-11.9%
COc1ccccc1NC(=O)c1cc(S(=O)(=O)NCCc2ccccc2)ccc1F	3.04%
CCCCN1C(=O)c2[nH]nc(-c3ccccc3O)c2C1c1cc(Br)c(O)c(OC)c1 (configuration not stated)	-9.51%

SMILES	inhibition
CCOc1ccc(CCNC(=O)Cn2ncn3c(cc4sc(C)cc43)c2=O)cc1OCC	-4.53%
CC1CCC(NC(=O)c2ccc3c(c2)N(Cc2ccccc2F)C(=O)c2ccccc2S3=O)CC1 (configuration not stated)	-0.751%
O=C(NCc1ccccc1)C(=O)NCC(c1ccc2c(c1)OCO2)N1CCOCC1 (configuration not stated)	-0.811%
CCN1CCN(c2oc(/C=C/c3ccc(OC)c(OC)c3)nc2C#N)CC1	0.961%
COc1ccc2c(c1)sc1ncc(C(=O)NCc3ccc(Cl)cc3)c(=O)n12	-3.31%
Clc1ccc(-c2cn3ncsc3n2)cc1	23%
COc1ccc(S(=O)(=O)/C(C#N)=C/Nc2ccccc2F)cc1	active: 39.8%
COc1ccc(-n2cc(C(=O)OCc3ccc(F)c(F)c3)c3ccccc3c2=O)cc1	0.789%
CCc1ccc(NS(=O)(=O)c2ccc3[nH]cc(C(=O)NCCc4cccc(C)c4)c(=O)c3c2)cc1	2.2%
CCOc1ccc(-n2c(=O)c3sc4ccccc4c3n(Cc3cccc(C)c3)c2=O)cc1	-16.7%
O=C(NC1(C(F)(F)F)C(=O)Nc2c1c(=O)[nH]c(=O)n2-c1ccc(F)cc1)c1ccccc1 (configuration not stated)	0.474%
COc1ccc(C2C(=O)N(C3CCCCC3)CC(=O)N2CCC2=CCCCC2)cc1 (configuration not stated)	-3.28%
Cc1cccc(N2CCN(C(=O)CCc3c(C)nc4c(c3C)c(=O)n(C)c(=O)n4C)CC2)c1C	20.2%
Cc1ccc(OC(=O)c2cc(-c3ccc(Cl)cc3)on2)c(C)c1	-20.1%
Cc1ccc(-c2nc(NC(=O)CSc3ncnc4sc5c(c34)CCC(C)C5)ns2)cc1 (configuration not stated)	8.36%
CCOc1ccc(N(CC)S(=O)(=O)N2CCCC(C(=O)Nc3ccc(OC)c(OC)c3)C2)cc1 (configuration not stated)	-10%
CCn1cc2nc(SCc3ccccc3Cl)n(CCc3ccccc3)c(=O)c2n1	-5.91%
Cc1ccc(NC(=O)CCNS(=O)(=O)c2ccc(Br)s2)cc1	-5.03%
CCOC(=O)C1CCCN(C(=O)c2cccc(NC(=O)c3nsc4ccccc34)c2)C1 (configuration not stated)	7.45%
O=C(NCCS(=O)(=O)N1CCN(c2ccccc2F)CC1)C(c1ccccc1)c1ccccc1	0.24%
COc1cc(C2C(=O)N(C3CCCCCC3)CC(=O)N2CCC2=CCCCC2)ccc1OC(C)C (configuration not stated)	-21%
CNCCCC1c2ccccc2C=Cc2ccccc21	active: 74.8%
CC(=O)Nc1cccc(NC(=O)CSc2nc(C3CC3)nc3ccccc23)c1	active: 34.2%
O=C(CSc1nnc(CNC(=O)c2ccccc2F)n1-c1ccccc1)Nc1ccccc1F	14.1%
CCCNC(=O)CCn1nc(-c2ccccc2)c2ccccc2c1=O	-3.78%

SMILES	inhibition
Cc1ccc(S(=O)(=O)c2cnc(SC(C)C(=O)Nc3ccccc3)[nH]c2=O)cc1 (configuration not stated)	-21.8%
CCOc1ccc(OCC)c(NC(=O)c2cc(CN3CCOCC3)on2)c1	8.31%
CCOc1ccc(-n2ccn3c(CC(C)CC(=O)O)nnc3c2=O)cc1 (configuration not stated)	-8.83%
COc1ccc2c(c1)c1c(c(=O)n(-c3ccc(C)cc3)c(=O)n1CC(=O)N1CCCC1)n2C	-4.82%
CCC(CC)C(=O)Nc1ccc(S(=O)(=O)Nc2nccs2)cc1	active: 32.1%
CCC12CN3CC(C)(CN(C1)C3c1ccccc1C)C2=O (configuration not stated)	-3.8%
Cc1ccccc1-c1nc2cc(NC(=O)c3cccc(OCCC(C)C)c3)ccc2o1	-3.25%
CCCCN(Cc1ccccc1)S(=O)(=O)c1cc(Br)cc2c1N(C(=O)C1CC1)CC2	0.254%
COc1cc(NC(=O)c2ccc(-c3nc(COc4ccccc4)c(C)o3)cc2)cc(OC)c1	2.27%
CNc1c(NC(=O)c2cc(OC)cc(OC)c2)c(=O)oc2ccccc12	24%
CSc1nc(Nc2cccc(C)c2)c(C#N)c(-c2ccccc2)n1	4.03%
CCOC(=O)c1cnc2ccc(OC)cc2c1NCCc1ccc(OC)c(OC)c1	-12.2%
Cn1c(SCC(=O)N2CCCc3ccccc32)ncc(C(=O)Nc2ccc(F)cc2)c1=O	-6.89%
CCCCNC(=O)c1nn(-c2ccc(C)cc2)c(=O)c2c1c1ccccc1n2C	-2.28%
Cc1cccc(CNC(=O)c2cccc(NC(=O)N3CCSc4ncccc43)c2)c1	-1.62%
CCN1CCN(c2csc3ccc(C)cc3c2=O)CC1	-16.3%
COc1ccc(Br)cc1CNC(=O)CSc1cc(=O)n(C)c2ccccc12	-1.93%
Cc1ccccc1-c1noc(-c2cc3ccccc3oc2=O)n1	7.43%
Cc1ccc(-n2ncc(C(=O)Nc3ccc4c(c3)OCCO4)c2C2CCN(C(=O)OC(C)(C)C)CC2)cc1	15.9%
Cc1ccc(-c2nc(CS(=O)(=O)CC(=O)N3CCN(c4cccc(C)c4C)CC3)c(C)o2)cc1	-10%
CCCc1ccc(OC(C)C(=O)Nc2sc3c(c2C(=O)OC)CCCCC3)cc1 (configuration not stated)	4.65%
CC1CCN(S(=O)(=O)c2ccc3c(c2)oc(=O)n3CC(=O)NC(C)c2ccccc2)CC1 (configuration not stated)	-13%
COc1ccc(OC)c(-c2csc(NC(=O)Cn3[nH]c(=O)c4ccccc4c3=O)n2)c1	active: 31.9%
CCOC(=O)c1c(C)[nH]c(C)c1S(=O)(=O)N1CCCC(C(=O)Nc2ccccc2OCC)C1 (configuration not stated)	-1.93%
CCc1cccc(CC)c1NC(=O)C(CC)n1nc(C)n2c(cc3cc(C)ccc32)c1=O (configuration not stated)	4.68%

SMILES	inhibition
Cc1ccc2c(c1)C(c1ccccc1)N(C(=O)c1ccccc1F)CC(=O)N2 (configuration not stated)	0.537%
CCOC(=O)c1cccc(NC(=O)c2cc3cc4ccc(C)cc4nc3o2)c1	13.7%
CC(=O)N1CCN(C(=S)c2ccc([N+](=O)[O-])cc2)CC1	active: 48.4%
CCCn1c(SCc2nc(-c3cc(OC)ccc3OC)no2)nnc1-c1ccc(Cl)cc1	13.3%
Cc1ccccc1CNC(=O)C1CCN(c2nnc(-n3c(C)ccc3C)s2)CC1	3.28%
COc1ccc2c(c1)c(=O)c(S(=O)(=O)c1ccc(Cl)cc1)cn2C	10.8%
CC(=O)Nc1c(C)nn(-c2ccccc2)c1N1CCC(C(=O)Nc2ccc(F)cc2Cl)CC1	-18.6%
Cc1cccc(NC(=O)N2CCC(CN3CCC(C)CC3)CC2)c1C	-23.5%
CCN(CC)CCOC(=O)c1ccc(NC(=O)Cn2ncc3c([nH]c4ccc(C)cc43)c2=O)cc1	-5.12%
COc1ccccc1-c1nc2c3c(-c4ccccc4)c(-c4ccccc4)oc3ncn2n1	-5.8%
COCCn1c(CNC(=O)c2ccc(C)cc2)nc2cccnc21	1.49%
Cc1ccccc1CS(=O)(=O)CC1Nc2ccc(C(=O)NCc3ccc(Cl)cc3)cc2NC1=O (configuration not stated)	6.71%
CCOc1ccc(-c2nonc2NC(=O)c2oc3c(C)c(C)ccc3c2C)cc1OCC	-24.7%
O=C(Nc1cccc(C(=O)OCc2cc(=O)n3nc(C4CC4)sc3n2)c1)c1ccccc1	5.99%
Cc1cc(C)cc(OC(C)C(=O)Nc2nonc2-c2ccc(Br)cc2)c1 (configuration not stated)	4.86%
Cc1ccccc1NC(=O)CSc1nnc(C)c(=O)[nH]1	14.3%
O=C(NCc1ccco1)C1CCN(C(=O)N2CCOc3ccccc32)CC1	-12.3%
CCOc1cccc(CNC(=O)c2ccc(N3CCCC3)c(NC(=O)NCc3ccc(F)cc3)c2)c1	-10.7%
Cc1ccc(Cl)cc1N(C)C(=O)Cn1nc(Cc2cccnc2)c2ccccc2c1=O	6%
Nc1c(-c2nc(-c3cccs3)no2)nnn1-c1ccccc1Cl	13.4%
Cc1nnc(SCc2ccccc2)c2cc3sccc3n12	-5.09%
CCOc1cc(C(=O)N2CC(=O)Nc3ccc(C)cc3C2c2ccccc2)cc(OCC)c1OCC (configuration not stated)	4.42%
